{"source": "PubChem BioAssay AID624296", "about": "(National Center for Advancing Translational Sciences (NCATS), 2012)", "note": "About 9,900 (2.8%) of roughly 350,000 compounds were called active. This list was built around the results that the source calls inconclusive (neither active nor inactive); the mix of calls is not that of the screen. The call rests on the fitted dose curve; in most records, active means well fitted activation curve with a large enough effect; inconclusive means small, poorly fitted or top-dose-only effect; inactive means no such curve, though single readings can be large or run the other way. Potencies of inconclusive entries are left out as doubtful fits."}
{"experiment": "A quantitative high throughput screen for small molecules that induce DNA re-replication in MCF 10a normal breast cells; further: nearly all actives have a fitted effect of over 50% in size; further: potency means the concentration at half of the fitted maximal effect; tags describe the fitted curve by direction and shape; on activity, positive = re-replication: % of control where 0% means no effect.", "settings": "MCF 10A DNA re-replication, Hoechst nuclear intensity, 48 h; activity, positive = re-replication: at 46.1 µM (top of the series)"}
{"molecule": "Cc1ccc(S(=O)(=O)N2CCCC2CNC(=O)c2ccc(F)c(F)c2)cc1", "note": "(stereo not given)", "activity, positive = re-replication": "inactive: 4.78%"}
{"molecule": "CC(=O)NCCc1nc2cc(NC(=O)c3ccccc3C)ccc2n1C", "Potency": "active: 0.58 µM"}
{"molecule": "CCCCCCCCCCCC[n+]1ccc2ccccc2c1", "activity, positive = re-replication": "inactive: 54.9%"}
{"molecule": "Cc1ccc(S(=O)(=O)/N=C2/NC(=O)/C(=C\\c3ccccc3)S2)cc1", "Potency": "inconclusive [activator, single point]"}
{"molecule": "COc1ccc(CN(C)C(=O)c2cc(-c3ccc(OC)c(OC)c3)nc3ccccc23)c(OC)c1", "activity, positive = re-replication": "inactive: 12.6%"}
{"molecule": "Cc1ccccc1C(=O)NN(C)c1nc2ccccc2nc1C(F)(F)F", "Potency": "inconclusive [activator, full curve, poor fit]"}
{"molecule": "OC1Cc2ccccc2C1Nc1cccc(C(F)(F)F)c1", "note": "(stereo not given)", "activity, positive = re-replication": "inactive: -0.655%"}
{"molecule": "[2H]c1c([2H])c([2H])c(C(=O)c2sc(N3CCCCCC3)nc2-c2ccccc2)c([2H])c1[2H]", "Potency": "active: 9.2 µM"}
{"molecule": "O=C(Nc1ccc2ccccc2c1)c1onc2c1CCCC2", "Potency": "inconclusive [activator, partial curve]"}
{"molecule": "CC(C)CNC(=O)c1nc(-c2ccccc2)n(-c2ccccc2)n1", "Potency": "inconclusive [activator, partial curve, poor fit]"}
{"molecule": "COc1cc(OC)cc(C(=O)NNC(=O)CCc2nc3ccccc3c(=O)[nH]2)c1", "activity, positive = re-replication": "inactive: 7.15%"}
{"molecule": "CC(=O)c1cccc(N2C(=NC(=O)COc3ccccc3)SC3CS(=O)(=O)CC32)c1", "note": "(stereo not given)", "Potency": "inconclusive [activator, single point]"}
{"molecule": "CCOC(=O)C1=C(CSc2nc(C)ccc2C#N)OC(N)=C(C#N)C1c1cccc(OC)c1OC", "note": "(stereo not given)", "Potency": "inconclusive [activator, single point]"}
{"molecule": "Cc1cccnc1CN1CCN(C(=O)c2cc(COc3ccc4ncccc4c3)on2)CC1", "Potency": "inconclusive [activator, partial curve, poor fit]"}
{"molecule": "Cc1ccc(-c2c[n+](Cc3ccc(Cl)cc3)c3n2CCC3)cc1", "activity, positive = re-replication": "inactive: 2.13%"}
{"molecule": "COc1ccc(-c2cccc3c2C2CC3CCN2C(=O)OCc2ccccc2)cc1", "note": "(stereo not given)", "Potency": "inconclusive [activator, single point]"}
{"molecule": "Cc1nc(-c2cccnc2)sc1C(=O)Nc1ccc(Cl)cc1", "activity, positive = re-replication": "inactive: 9.71%"}
{"molecule": "O=C1CC2(CCN(C(=O)c3ccc([N+](=O)[O-])cc3)CC2)Oc2ccccc21", "Potency": "inconclusive [activator, partial curve, poor fit]"}
{"molecule": "NS(=O)(=O)c1ccc(NC(=O)Nc2ccc(C(F)(F)F)cc2)cc1", "Potency": "inconclusive [activator, single point]"}
{"molecule": "CCN1CCN(C(c2cccnc2)c2c(NC(=O)c3ccco3)sc(C)c2C)CC1", "note": "(stereo not given)", "Potency": "inconclusive [activator, single point]"}
{"molecule": "Cc1cc(=O)n2[nH]c(N)c(N=Nc3ccccc3)c2n1", "Potency": "inconclusive [activator, single point]"}
{"molecule": "C/C(=N\\Nc1nc(N2CCCCC2)nc(N2CCOCC2)n1)c1ccccc1O", "Potency": "inconclusive [activator, single point]"}
{"molecule": "CN1CCC(N(C)S(=O)(=O)c2ccc(NC(=O)COc3cccc(Cl)c3)cc2)CC1", "Potency": "inconclusive [activator, single point]"}
{"molecule": "NC1=NC(=O)/C(=C\\c2ccc(-c3ccc(Cl)cc3)o2)S1", "Potency": "active: 7.31 µM"}
{"molecule": "Nc1ccc(S(=O)(=O)Nc2nc(-c3ccccc3)cc(-c3ccccc3)n2)cc1", "Potency": "inconclusive [activator, partial curve, poor fit]"}
{"molecule": "O=C(OCc1nnc(-c2ccccc2)o1)C1CCN(C(=O)c2ccc(Cl)cc2)CC1", "activity, positive = re-replication": "inactive: -1.36%"}
{"molecule": "COc1ccc(C(=O)Nc2ccc(NC(=O)c3cccs3)cn2)cc1", "activity, positive = re-replication": "inactive: 3.89%"}
{"molecule": "Cc1ccc(NC(=S)NCc2ccc(Cl)cc2)c(OC(F)F)c1", "activity, positive = re-replication": "inactive: 1.52%"}
{"molecule": "Cc1cccc(-n2ncc3c(N4CCOCC4)ncnc32)c1", "activity, positive = re-replication": "inactive: 0.398%"}
{"molecule": "COc1ccc(/C=N/NC(=O)c2ccc(Cn3cc([N+](=O)[O-])cn3)o2)c(OC)c1C", "Potency": "inconclusive [activator, partial curve, poor fit]"}
{"molecule": "CCOC(=O)COc1c(Br)cc(/C=C2\\SC(=O)N(CC(=O)N3CCCC3)C2=O)cc1OC", "activity, positive = re-replication": "inactive: -0.386%"}
{"molecule": "COc1ccc(C(=O)c2sc(NC(C)C)nc2N)cc1OC", "Potency": "inconclusive [activator, single point]"}
{"molecule": "CCOC(=O)CNC(=O)N1CCCC(C(=O)c2cccc(Cl)c2)C1", "note": "(stereo not given)", "activity, positive = re-replication": "inactive: 2.41%"}
{"molecule": "COc1ccc2c(c1)C(C)CC(C)(C)N2C(=O)CSc1nc2ccccc2s1", "note": "(stereo not given)", "Potency": "inconclusive [activator, single point]"}
{"molecule": "O=C(Nc1ccccn1)c1ccc(Br)s1", "activity, positive = re-replication": "inactive: 0.0811%"}
{"molecule": "CCN=C1S/C(=C\\c2ccc(O)c(OCC)c2)C(=O)N1CC", "Potency": "inconclusive [activator, single point]"}
{"molecule": "O=C(CSc1nc2ccc([N+](=O)[O-])cc2[nH]1)c1ccc(Cl)cc1", "Potency": "inconclusive [activator, single point]"}
{"molecule": "CC1=CC(C)(C)N=C(Nc2nc(C)c3cc(C)cc(C)c3n2)N1", "activity, positive = re-replication": "inactive: 26.7%"}
{"molecule": "CCOc1ccc2oc(C(=O)N3CCCN(C)CC3)c(C)c2c1", "Potency": "inconclusive [activator, single point]"}
{"molecule": "O=c1cc(CCl)nc2scc(-c3ccccc3)n12", "Potency": "inconclusive [activator, single point]"}
{"molecule": "C[C@H](NC(=O)c1nc[nH]c1C(=O)N1CCN(C(=O)OC(C)(C)C)CC1)C(=O)OCc1ccccc1", "Potency": "inconclusive [activator, partial curve, poor fit]"}
{"molecule": "COc1ccc(-c2cc(-c3nnc(COC(=O)c4ccc(O)cc4)o3)c3ccccc3n2)cc1OC", "Potency": "inconclusive [activator, single point]"}
{"molecule": "CCCC(=O)Nc1nc(-c2ccc(Cl)s2)cs1", "Potency": "inconclusive [activator, single point]"}
{"molecule": "COc1cccc(CN(C)C(=O)CNC(=O)c2sc3ccccc3c2Cl)c1OC", "Potency": "inconclusive [activator, partial curve]"}
{"molecule": "O=C(NC(=S)Nc1ccc(CN2CCCCC2)cc1)c1cccc(OCc2ccccc2)c1", "Potency": "active: 23.1 µM"}
{"molecule": "N#CC1=C(N)S[C@H](C(=O)C23CC4CC(CC(C4)C2)C3)[C@H]1c1ccncc1", "Potency": "inconclusive [activator, single point]"}
{"molecule": "c1ccc(Cn2cnc3ccccc32)cc1", "Potency": "inconclusive [activator, single point]"}
{"molecule": "OCCCn1c(CCCNc2nc(-c3cccc(Br)c3)cs2)nc2cc(Cl)c(N3CCCCC3)cc21", "Potency": "inconclusive [activator, partial curve, poor fit]"}
{"molecule": "COc1ccc(NC(=O)COc2ccc(S(=O)(=O)N3CCOCC3)cc2C)cc1OC", "Potency": "inconclusive [activator, partial curve, poor fit]"}
{"molecule": "Cc1ccc(/C(=N\\O)c2oc3c(C)c4oc(=O)cc(C)c4cc3c2C)cc1", "Potency": "inconclusive [activator, full curve]"}
{"molecule": "COc1ccc(CN2CCc3cc(OC)c(OC)cc3C2)cc1O", "Potency": "inconclusive [activator, full curve, poor fit]"}
{"molecule": "CCN(CC)S(=O)(=O)c1ccc2nc(NC(=O)c3cccs3)sc2c1", "Potency": "inconclusive [activator, single point]"}
{"molecule": "CCNC(=O)c1c(NC(=O)c2cc(-c3cc(C)cc(C)c3O)n[nH]2)sc2c1CCCC2", "Potency": "active: 6.51 µM"}
{"molecule": "Cn1cccc1C(C#N)(CC#N)c1cccc(F)c1C#N", "note": "(stereo not given)", "activity, positive = re-replication": "inactive: -0.785%"}
{"molecule": "CCn1nc(C)c(NC(=O)CCCSc2nc(-c3ccco3)cc(C(F)(F)F)n2)c1C", "activity, positive = re-replication": "inactive: 27.7%"}
{"molecule": "O=C1CCCN1CCCNC(=S)Nc1ccc(Nc2ccccc2)cc1", "activity, positive = re-replication": "inactive: 1.83%"}
{"molecule": "C=CC[C@@H](CC(=O)N(CCO)Cc1ccccc1)C(=O)N[C@@H](COC(=O)[C@@H](CC=C)Cc1ccc(F)cc1)Cc1ccccc1", "Potency": "inconclusive [activator, partial curve, poor fit]"}
{"molecule": "Cc1ccc(SCc2c(C#N)c3ccccc3n2C)cc1", "activity, positive = re-replication": "inactive: 13.2%"}
{"molecule": "O=C(COc1ccc(Cl)cc1Cl)Nc1ccc(CN2CCOCC2)cc1", "activity, positive = re-replication": "inactive: 8.25%"}
{"molecule": "COc1cccc(/C=C/c2ccncc2)c1OC", "activity, positive = re-replication": "inactive: 18.2%"}
{"molecule": "CCOc1cc(/C=N/Nc2nc(N3CCCCC3)nc(N3CCCCC3)n2)ccc1OC(=O)c1ccco1", "Potency": "inconclusive [activator, partial curve, poor fit]"}
{"molecule": "CCN(CC)S(=O)(=O)c1ccc(O)c(C(=O)OCC(=O)Nc2ccc(OC(F)(F)F)cc2)c1", "Potency": "inconclusive [activator, single point]"}
{"molecule": "CC1(C)CC(C)(c2ccc(O)cc2O)N(c2ccc3ccccc3c2)C(=S)N1", "note": "(stereo not given)", "activity, positive = re-replication": "inactive: 1.54%"}
{"molecule": "COc1ccc(N(C)S(=O)(=O)c2cccc(C(=O)Nc3nc(C)cs3)c2)cc1", "activity, positive = re-replication": "inactive: 4.09%"}
{"molecule": "COc1ccc(OC)c(CN(CCN2CCOCC2)C(=O)Nc2ccccc2)c1", "Potency": "inconclusive [activator, single point]"}
{"molecule": "Cc1noc(C)c1COc1ccc(C(=O)OCC(=O)Nc2c(C)n(C)n(-c3ccccc3)c2=O)cc1", "activity, positive = re-replication": "inactive: -12.8%"}
{"molecule": "O=C(N/N=C\\c1ccc(-c2ccc([N+](=O)[O-])cc2)o1)c1ccc2c(c1)OCO2", "activity, positive = re-replication": "inactive: 1.2%"}
{"molecule": "O=C(CN1C(=O)/C(=C\\c2ccc(C(F)(F)F)cc2)Sc2ccccc21)NCc1ccco1", "Potency": "inconclusive [activator, full curve]"}
{"molecule": "CCOC(=O)c1cnn(-c2ccccc2)c1NC(=O)CCl", "Potency": "inconclusive [activator, single point]"}
{"molecule": "CC(C)CCNC(=O)C(c1ccncc1)N(Cc1cccs1)C(=O)Cn1nnc(-c2ccc(F)cc2)n1", "note": "(stereo not given)", "Potency": "inconclusive [activator, full curve]"}
